# Results: the supplement of paper PMC9446081
# The campaign covered roughly 39,000 compounds. About 220 (0.56%) showed activity. The list shows a part of the results.
# System: Escherichia coli K-12 BW25113
# Test: relative growth (OD600 normalised to plate interquartile mean) (fraction); higher = less growth inhibition, active = 0.2 or less
# Conditions: 50 µM; LB; incubation time: overnight (16-24 h)
# 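Note: static incubation at 37 °C against the wild-type strain, values averaged over two biological replicates.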
row,SMILES,relative growth
1,CN1CCN(C(=O)C[C@H]2CC[C@@H]3[C@H](COC[C@H](O)CN3C(=O)Nc3ccc4c(c3)OCO4)O2)CC1,inactive: 0.974
2,C[C@@H]1CN([C@H](C)CO)C(=O)c2cc(C#CC3CC3)cnc2O[C@H]1CN(C)S(=O)(=O)c1cccc(F)c1,inactive: 1.03
3,C[C@@H]1CN([C@@H](C)CO)C(=O)c2cccc(NC(=O)Nc3cccc4ccccc34)c2O[C@H]1CN(C)S(=O)(=O)c1ccc2ncsc2c1,inactive: 1.01
4,Cc1noc(C)c1NC(=O)N(C)C[C@H]1OCCCC[C@H](C)Oc2ccc(NS(=O)(=O)c3ccc(F)cc3)cc2C(=O)N([C@H](C)CO)C[C@@H]1C,inactive: 0.993
5,C[C@H]1CN([C@@H](C)CO)C(=O)Cc2cc(NS(=O)(=O)c3ccccc3)ccc2O[C@H]1CN(C)Cc1ccc2c(c1)OCO2,inactive: 1.03
6,C[C@H]1CN([C@@H](C)CO)C(=O)Cc2cc(NC(=O)Cc3ccccc3)ccc2O[C@H]1CN(C)Cc1ccc(C(F)(F)F)cc1,inactive: 1.06
7,C[C@@H]1CN([C@@H](C)CO)S(=O)(=O)c2ccc(Br)cc2O[C@@H]1CN(C)C(=O)NC1CCCCC1,inactive: 1.02
8,O=C(C[C@H]1C[C@@H]2c3cc(NS(=O)(=O)c4ccc(F)cc4)ccc3O[C@@H]2[C@@H](CO)O1)NC1CCCC1,inactive: 1.02
9,C[C@H]1CCCCO[C@H](CN(C)Cc2ccc(C(F)(F)F)cc2)[C@@H](C)CN([C@@H](C)CO)C(=O)c2cc(NS(=O)(=O)c3ccc(Cl)cc3)ccc2O1,inactive: 1.08
10,C[C@H]1CN([C@@H](C)CO)C(=O)Cc2cc(NS(=O)(=O)c3cn(C)cn3)ccc2O[C@@H]1CN(C)CC1CCCCC1,inactive: 0.998
11,C[C@H](CO)N1C[C@H](C)[C@H](CN(C)Cc2cncnc2)Oc2cc(C3=CCCCC3)ccc2S1(=O)=O,inactive: 0.986
12,C[C@@H]1CN([C@H](C)CO)C(=O)Cc2cc(NS(C)(=O)=O)ccc2O[C@@H]1CN(C)Cc1ccc(C(=O)O)cc1,inactive: 1
13,CNC(=O)C[C@@H]1CC[C@@H]2[C@H](COc3ccc(NC(=O)c4ccc(C(F)(F)F)cc4)cc3C(=O)N2C)O1,inactive: 0.98
14,O=C(NCC(F)(F)F)C1CCNCC1,inactive: 0.98
15,CC(C)NCC(O)COc1cccc2[nH]ccc12 (configuration not stated),inactive: 0.917
16,C[C@@H]1CCCCO[C@@H](CN(C)C(=O)Nc2ccccc2)[C@@H](C)CN([C@@H](C)CO)C(=O)c2cc(NC(=O)Nc3ccc(C(F)(F)F)cc3)ccc2O1,inactive: 1.04
17,COc1ccc(NC(=O)N(C)C[C@@H]2Oc3ccc(NS(=O)(=O)c4c(C)noc4C)cc3CC(=O)N([C@H](C)CO)C[C@@H]2C)cc1,inactive: 0.994
18,COc1ccc(CN(C)C[C@@H]2OCCCC[C@@H](C)Oc3ccc(NS(=O)(=O)c4c(C)noc4C)cc3C(=O)N([C@@H](C)CO)C[C@@H]2C)cc1,inactive: 0.936
19,C[N+](C)(C)CCCC[C@@H]1NC(=O)[C@@H]2C[C@H](C(=O)NCc3ccc(F)cc3)[C@H](c3cccc(OCCO)c3)N2C1=O,inactive: 1.01
20,C[C@H]1CN([C@@H](C)CO)C(=O)c2cc(NC(=O)C3CC3)ccc2O[C@H]1CN(C)S(=O)(=O)c1cn(C)cn1,inactive: 0.976
21,C[C@H](CO)N1C[C@H](C)[C@H](CN(C)S(=O)(=O)c2ccc(C#N)cc2)OCc2cnnn2CCCC1=O,inactive: 0.986

row,SMILES,relative growth
1,C[C@@H]1CN([C@@H](C)CO)C(=O)c2cc(C#Cc3cccc(F)c3)cnc2O[C@@H]1CN(C)CC1CCOCC1,inactive: 0.987
2,Cn1cnc(S(=O)(=O)N2C[C@@H](O)COC[C@H]3O[C@@H](CC(=O)NCc4ccc(F)cc4)CC[C@@H]32)c1,inactive: 1.01
3,Cc1ccc2nc(SCc3c(C)c(C)cc(C)c3C)[nH]c2c1,inactive: 1.02
4,COc1ccc(S(=O)(=O)N(C)C[C@H]2Oc3c(NS(=O)(=O)c4ccccc4)cccc3C(=O)N([C@H](C)CO)C[C@H]2C)cc1,inactive: 1.01
5,C[C@@H]1CN([C@@H](C)CO)C(=O)c2cc(NC(=O)Cc3ccccc3)ccc2O[C@H]1CN(C)Cc1ccc(Oc2ccccc2)cc1,inactive: 0.961
6,COc1ccc(S(=O)(=O)Nc2ccc3c(c2)C(=O)N([C@H](C)CO)C[C@H](C)[C@H](CN(C)S(C)(=O)=O)OCCCC[C@@H](C)O3)cc1,inactive: 0.993
7,c1cnc2nccn2c1,inactive: 0.985
8,COc1ccc(CN(C)C[C@H]2Oc3c(NS(C)(=O)=O)cccc3C(=O)N([C@@H](C)CO)C[C@H]2C)cc1,inactive: 1.01
9,O=C(C[C@H]1C[C@@H]2c3cc(NC(=O)Nc4ccc(C(F)(F)F)cc4)ccc3O[C@@H]2[C@@H](CO)O1)NC1CCCCC1,inactive: 1
10,C[C@H](O)C#Cc1cnc2c(c1)C(=O)N([C@H](C)CO)C[C@@H](C)[C@@H](CN(C)Cc1cncnc1)O2,inactive: 1.01
11,C[C@H](CO)N1C[C@H](C)[C@H](CN(C)CC2CC2)Oc2ccc(NS(=O)(=O)c3ccc(F)cc3)cc2CC1=O,inactive: 0.995
12,C[C@@H]1CCCCO[C@@H](CN(C)C(=O)c2ccncc2)[C@H](C)CN([C@H](C)CO)C(=O)c2cc(NS(=O)(=O)c3ccc(Cl)cc3)ccc2O1,inactive: 0.976
13,CCCN(C)C[C@H]1OCCCC[C@@H](C)Oc2ccc(NC(=O)CCC(F)(F)F)cc2C(=O)N([C@H](C)CO)C[C@H]1C,inactive: 0.999
14,C[C@@H]1CN([C@H](C)CO)C(=O)Cc2cc(NC(=O)Nc3ccc(F)cc3)ccc2O[C@H]1CN(C)Cc1ccc(C(F)(F)F)cc1,inactive: 0.957
15,C[C@@H]1CN([C@H](C)CO)C(=O)CCCn2nncc2CO[C@@H]1CN(C)C(=O)Nc1ccc2c(c1)OCO2,inactive: 0.989
16,COc1ccccc1CN(C)C[C@@H]1OCc2ccccc2-c2c(n(C)c3ccccc23)C(=O)N([C@H](C)CO)C[C@@H]1C,inactive: 0.971
17,COCC#Cc1ccc2c(c1)O[C@@H](CN(C)S(=O)(=O)c1cccc(F)c1)[C@@H](C)CN([C@H](C)CO)S2(=O)=O,inactive: 1
18,Cc1noc(C)c1NC(=O)Nc1ccc2c(c1)CC(=O)N([C@H](C)CO)C[C@H](C)[C@@H](CN(C)CC1CC1)O2,inactive: 1.02
19,Cc1ccc(S(=O)(=O)Nc2ccc3c(c2)C(=O)N([C@H](C)CO)C[C@H](C)[C@H](CN(C)C(=O)C2CCCCC2)OCCCC[C@H](C)O3)cc1,inactive: 0.987
20,COc1ccc(S(=O)(=O)N(C)C[C@@H]2Oc3ccc(NC(=O)NC(C)C)cc3C(=O)N([C@@H](C)CO)C[C@H]2C)cc1,inactive: 0.986
21,C[C@H]1CN([C@@H](C)CO)C(=O)Cc2cc(NC(=O)C3CCCCC3)ccc2O[C@@H]1CN(C)Cc1ccc(-c2ccccc2)cc1,inactive: 1.02

row,SMILES,relative growth
1,COc1ccc(NC(=O)Nc2ccc3c(c2)[C@@H]2C[C@@H](CC(=O)NCc4ccncc4)O[C@@H](CO)[C@@H]2O3)cc1,inactive: 1.04
2,C[C@H]1C[C@@H]2[C@@H](C[C@@H]1C)N[C@@H]1C(=O)NC(=O)N[C@H]1N2C[C@H](O)[C@H](O)[C@H](O)CO,inactive: 0.953
3,O=C(C[C@@H]1CC[C@@H](NC(=O)Cc2ccccn2)[C@H](CO)O1)NCCc1ccncc1,inactive: 0.982
4,NCC1OC(OC2C(N)CC(N)C(OC3OC(CO)C(O)C(N)C3O)C2O)C(N)C(O)C1O.O=S(=O)(O)O (configuration not stated),active: 0.0483
5,C[C@@H]1CN([C@H](C)CO)S(=O)(=O)c2ccc(-c3ccncc3)cc2O[C@@H]1CN(C)C(=O)c1cccc(F)c1,inactive: 0.983
6,O=S(=O)([O-])CCS.[Na+],inactive: 0.985
7,N#CCN1CCSCC1,inactive: 1.01
8,N[C@H]1CC[C@H](CCn2cc(-c3ccccn3)nn2)O[C@@H]1CO,inactive: 0.964
9,CC(=O)O[C@@H]1[C@H]2OC(C)(C)O[C@H]2O[C@@H]1[C@@H](O)CO,inactive: 0.987
10,C[C@H](CO)N1C[C@H](C)[C@@H](CN(C)C)Oc2ccc(NS(C)(=O)=O)cc2CC1=O,inactive: 0.983
11,C[C@H]1CN([C@@H](C)CO)C(=O)c2cc(NS(=O)(=O)c3cn(C)cn3)ccc2O[C@H]1CN(C)S(=O)(=O)c1cn(C)cn1,inactive: 1.01
12,O=C(C[C@@H]1C[C@@H]2c3cc(NC(=O)Nc4ccccc4F)ccc3O[C@@H]2[C@H](CO)O1)NCc1ccc(Oc2ccccc2)cc1,inactive: 0.99
13,O=C(C[C@@H]1CC[C@@H](NC(=O)C2CC2)[C@@H](CO)O1)NCCCN1CCOCC1,inactive: 0.943
14,CC(C)(C)[S@](=O)N1Cc2cc(C(=O)NC3CCCCC3)nc(-c3cccc(Br)c3)c2[C@@H]1CCO,inactive: 0.966
15,CC1(C)S[C@@H]2[C@H](NC(=O)[C@H](N)c3ccc(O)cc3)C(=O)N2[C@H]1C(=O)O,inactive: 0.516
16,C[C@H](CS)C(=O)N1CCC[C@H]1C(=O)O,inactive: 1.03
17,C[C@@H]1CN([C@H](C)CO)C(=O)c2cc(NC(=O)NC3CCCCC3)ccc2O[C@@H](C)CCCCO[C@@H]1CN(C)Cc1ccc2c(c1)OCO2,inactive: 0.986
18,C=C[C@H](CO[Si](CC)(CC)CC)N(Cc1ccc(OC(C)=O)c(OC)c1)S(=O)(=O)c1ccc(Br)cc1,inactive: 1.03
19,COc1ccc(NC(=O)Nc2ccc3c(c2)C(=O)N([C@@H](C)CO)C[C@H](C)[C@@H](CN(C)S(=O)(=O)c2ccc(OC)cc2)OCCCC[C@H](C)O3)cc1,inactive: 1.01
20,C[C@H]1CN([C@@H](C)CO)C(=O)c2cc(NC(=O)Cc3ccccc3)ccc2O[C@H]1CN(C)S(C)(=O)=O,inactive: 0.995
